About 9,900 (2.8%) of roughly 350,000 compounds were called active. This list was built around the results that the source calls inconclusive (neither active nor inactive); the mix of calls is not that of the screen. Calls follow the shape of the dose curve; as a rule, active = well fitted activation curve with a large enough effect; inconclusive = small, poorly fitted or top-dose-only effect; inactive = no such curve, though single readings can be large or run the other way. No potency is given beside an inconclusive call; the fits are too rough.
Assay: A quantitative high throughput screen for small molecules that induce DNA re-replication in MCF 10a normal breast cells. Also: nearly all actives have a fitted effect of over 50% in size.
Details: MCF 10A DNA re-replication, Hoechst nuclear intensity, 48 h; series mostly up to 46.1 µM
Potency is read from the fitted curve at half-maximal effect; tags tell the direction and shape of the fitted curve.

**Q.** Which Potency does the source give for `CCOc1ccc(OCC)c(S(=O)(=O)NCCOC23CC4CC(CC(C4)C2)C3)c1` here?
**A.** The Potency was inconclusive [activator, full curve].

**Q.** For `CC1CN(S(=O)(=O)c2cccc(C(=O)N(Cc3nnc(-c4ccccc4Cl)o3)C3CC3)c2)CC(C)O1` (stereo not given), which Potency is on record?
**A.** The Potency was “inactive”.

**Q.** Which Potency does the source give for `CC(C)(C)C1CCc2c(sc3nc(SCC(=O)O)nc(N)c23)C1` (stereo not given) here?
**A.** Its Potency is inconclusive [activator, single point].

**Q.** For `COc1ccc(C(=O)/C=C/c2ccsc2)cc1CSCC(=O)O`, which Potency is on record?
**A.** Its Potency is active: 18.4 µM.

**Q.** Which Potency does the source give for `CC1(C)Cc2nc3nc(SCC(=O)NCCc4ccccc4)n(-c4ccccc4)c(=O)c3cc2CO1` here?
**A.** Its Potency is “inactive”.

**Q.** Which Potency does the source give for `COc1ccc(/C=N/Nc2cc(C)nc(NS(=O)(=O)c3ccc(C)cc3)n2)cc1` here?
**A.** The Potency was inconclusive [activator, single point].

**Q.** For `Cc1ccccc1CS(=O)(=O)c1ncc(Cl)c(C(=O)Nc2ccc(F)cc2)n1`, which Potency is on record?
**A.** Its Potency is inconclusive [activator, single point].

**Q.** With `CCCCCCCCSc1nnc(CSc2nc3nc(C)cc(C)n3n2)o1` as the molecule, how does the Potency read?
**A.** The Potency was inconclusive [activator, single point].

**Q.** Which Potency does the source give for `Cc1ccc(-c2cc(C(=O)NCCN3CCOCC3)c3ccccc3n2)o1` here?
**A.** The Potency was “inactive”.

**Q.** Which Potency does the source give for `Cc1ccc(-c2nnc3sc(-c4ccncc4)nn23)cc1` here?
**A.** The Potency was inconclusive [activator, partial curve, poor fit].

**Q.** With `Cc1noc(C)c1COc1ccc(C(=O)OCC(=O)Nc2ccc3ccccc3c2)cc1` as the molecule, how does the Potency read?
**A.** Its Potency is inconclusive [activator, single point].

**Q.** With `Cc1ccc(N=Cc2cc(Cl)cc(Cl)c2O)nc1` as the molecule, how does the Potency read?
**A.** The Potency was inconclusive [activator, single point].

**Q.** With `Cc1ccc(S(=O)(=O)N2CCOCC2)cc1C(=O)NC1CCCC(C)C1C` (stereo not given) as the molecule, how does the Potency read?
**A.** The Potency was “inactive”.

**Q.** For `Cc1occc1-c1nnc(SCC(=O)NC(C)(C)C)n1C(C)c1ccccc1` (stereo not given), which Potency is on record?
**A.** Its Potency is “inactive”.

**Q.** With `CC(=O)NCCc1ccc(C(=O)CSc2nnc(C3CC3)n2C2CC2)cc1` as the molecule, how does the Potency read?
**A.** Its Potency is “inactive”.

**Q.** For `CCCOc1ccc(/C=C2/C(=O)ON=C2C)cc1OCC`, which Potency is on record?
**A.** The Potency was inconclusive [activator, single point].

**Q.** With `COc1cccc(C2=NOC(C(=O)NCc3ccccc3)C2)c1` (stereo not given) as the molecule, how does the Potency read?
**A.** The Potency was active: 1.64 µM.

**Q.** Which Potency does the source give for `COC(=O)C1=C(N)N(c2ccccc2C(F)(F)F)C2=C(C(=O)CCC2)C1c1ccc2c(c1)OCO2` (stereo not given) here?
**A.** Its Potency is “inactive”.

**Q.** Which Potency does the source give for `Cc1ccc(CC2SC(=Nc3ccccc3)N(c3ccccc3)C2=O)cc1` (stereo not given) here?
**A.** The Potency was inconclusive [activator, full curve].

**Q.** With `CCOc1ccc(CNC(=O)c2ccc(Sc3ccc(Cl)cc3)c(NC(C)=O)c2)cc1OC` as the molecule, how does the Potency read?
**A.** The Potency was “inactive”.
